Data: PubChem BioAssay AID2100 (National Center for Advancing Translational Sciences (NCATS), 2009)
In all, about 300,000 compounds went through this assay and about 1,200 (0.4%) were called active. Inconclusive means that the source gave no clear call. Such entries were picked first, then a sample of the others. Calls follow the shape of the dose curve; as a rule, active = well fitted inhibition curve with a large enough effect; inconclusive = small, poorly fitted or top-dose-only effect, or another doubt; inactive = no such curve, though single readings can be large or run the other way. Potencies of inconclusive entries are doubtful fits and often do not repeat.

What follows are compounds tested against Lysosomal alpha-glucosidase (Homo sapiens) (UniProt P10253) (assay: qHTS Assay for Inhibitors and Activators of Human alpha-Glucosidase Cleavage of Glycogen). Conditions: recombinant GAA, glycogen substrate, Amplex Red glucose oxidase fluorescence; activity change, negative = inhibition: at 76.4 µM (top of the series) unless noted.
Summary of the method: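 Recombinant human alpha-glucosidase (4 nM final) hydrolysed bovine liver glycogen (30 ug) for 40 min at 37 C in pH 5.0 citrate/phosphate with 0.01% Tween-20. Released glucose detected by glucose oxidase/Amplex Red, Ex 573/Em 610 nm. Compounds up to 77 uM; AC50 from Hill fits.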
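For activity change, negative = inhibition in this document: 0% = full enzyme reaction and -100% = no-enzyme basal signal.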
Potency is read from the fitted curve at half-maximal effect.

| Structure (SMILES) | Potency | activity change, negative = inhibition |
| --- | --- | --- |
| Cc1ccc(C(=O)OCCc2c(C)[nH]n(-c3ccccc3)c2=O)cc1 | inconclusive: 35.5 µM [inhibitor, single point] |  |
| C/C(=N\N1C(=O)CSC1=S)c1ccc(Br)cc1 | inconclusive: 50.1 µM [inhibitor, single point] |  |
| CCOc1ccc(N(CC(=O)NC2CCCC2)S(=O)(=O)c2c(C)[nH]c(=O)[nH]c2=O)cc1 |  | inactive: -1.39% |
| Cc1c(CC(=O)N2CCCCC2)c(=O)oc2c(C)c3occ(C(C)(C)C)c3cc12 |  | inactive: -8.76% [at 76.3 µM] |
| COC(=O)[C@@]1(Cc2ccc(F)cc2)[C@H]2c3cc(C(=O)N4CCCC4)n(CCc4ccc(O)c(O)c4)c3C[C@H]2CN1C(=O)c1ccccc1 | inconclusive: 8.91 µM [inhibitor, full curve] |  |
| C[N+]1(CC(=O)NNc2c3ccccc3nc3ccccc23)CCOCC1 | inconclusive: 6.26 µM [inhibitor, partial curve] |  |
| CC(C)=C(NC(=O)c1ccccc1)C(=O)NCCCC(=O)O |  | inactive: -4.76% |
| CCN1CCN(C2=C(NS(=O)(=O)c3ccc(NC(C)=O)cc3)C(=O)c3ccccc3C2=O)CC1 |  | inactive: 2.51% [at 76.3 µM] |
| O=[N+]([O-])c1cc(Cl)ccc1N1CCN(c2ccccc2O)CC1 | active: 8.84 µM |  |
| C=CCOc1ccc(C=Nc2ccc(OC)cc2)c(O)c1 | inconclusive: 44.7 µM [inhibitor, single point] |  |
| O=C(N/N=C/c1ccc(O)cc1)c1cccc(N/N=C/c2ccc(O)cc2)c1 | active: 25.1 µM |  |
| CC12CCC(C(=O)NNc3ccc([N+](=O)[O-])cc3)(OC1=O)C2(C)C (centres undefined) | inconclusive: 15.8 µM [inhibitor, partial curve] |  |
| COc1ccccc1CN(C)C(=O)CN1C(=O)c2ccccc2C1=O | inconclusive: 31.6 µM [inhibitor, partial curve] |  |
| Cc1cccc(C)c1NC(=S)Nc1ccc(Cl)c(Cl)c1 | inconclusive: 39.8 µM [inhibitor, partial curve] |  |
| CC(C)(C)c1ccc(O)c(N)c1 | inconclusive: 31.4 µM [inhibitor, partial curve] |  |
| C/C(=N\NC(=O)c1cccc(N/N=C(\C)c2cc(O)ccc2O)c1)c1cc(O)ccc1O | inconclusive: 3.98 µM [inhibitor, full curve] |  |
| COc1ccc(C(=O)C=CNNC(=O)c2ccc(Cl)cc2)cc1 | inconclusive: 39.8 µM [inhibitor, partial curve] |  |
| CCc1ccc(CNc2ccc(O)cc2)cc1 | inconclusive: 31.6 µM [activator, single point] |  |
| O=C1CSC(=S)N1c1cccc(Cl)c1 | inconclusive: 19.8 µM [inhibitor, partial curve] |  |
